To fix the notation:
T1: UNK ZnF1-3 (human, UniProt Q9C0B0 31-174)
T1 sequence: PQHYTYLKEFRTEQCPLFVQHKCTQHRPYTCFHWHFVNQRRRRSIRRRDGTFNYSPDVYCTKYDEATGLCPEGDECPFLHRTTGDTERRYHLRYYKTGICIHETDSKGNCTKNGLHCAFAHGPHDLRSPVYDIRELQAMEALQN

B1: 82450353_82451020_3594_CDS_ENSG00000117114_ENST00000319517|human|control|control (ssRNA)
RNA: GGGAGUUCUACAGUCCGACGAUCGCUAUUGAUGUCACCUGAGAUAAAAGAAGAUUCUGAUUGUUUUCUCACAGUAUCAUUCCACAUUCUUCUUAUACGACUCUGUGUGCCAGAGGAAUAGCGAGCACUGGUUCUGGUGGUUGACAACAGAGGAUUGAGCAUCA
B2: chr5:139930402:139930403:-_ENSG00000213523_ENST00000336283|hu_hu|FALSE|FALSE (ssRNA)
RNA: GGGAGUUCUACAGUCCGACGAUCUUCAUUGGCUGCCUCCUCUGAAAACAGACUCCUCUUUUCUGCAAUUAAUCUUUUAACUCCUACCAUCCACUGACUGACCUCAGUCACAUGGUCAACCAUGAGGGAGCGGUGGAUGUCAUCCAACAGAGGAUUGAGCAUCA
B3: 60514221_60524921_784_CDS_ENSMUSG00000047766_ENSMUST00000114034|mouse|control|control (ssRNA)
RNA: GGGAGUUCUACAGUCCGACGAUCAUUUUCAAUUUUGGUAAUCUGAUUUCCAUGAAGGUCCAAGACAUCUAAAUUUUUUAGAUUCUCCAGAUUUGAGAUUUUCUUGAUUCUGUUUUUCCCUAACAGGAGGACACGAAGGGAUUUCAACAGAGGAUUGAGCAUCA
B4: chr2:39052001:39052002:-_ENSMUSG00000026753_ENSMUST00000028087|mus_mus|motif|central (ssRNA)
RNA: GGGAGUUCUACAGUCCGACGAUCCAACUGGUAUCAAAUCAACACAUCAAUGCUACAAGUAUUAAAUGUUUUUCUAAUACGGUAGAAAUAAAAACAUUAAUAUGGCAGUUAUGUUCUUUAGGCACAAUUUAGUGAUUUUUUUAACAACAGAGGAUUGAGCAUCA
B5: 58001293_58001413_769_CDS_ENSG00000255529_ENST00000299638|human|control|control (ssRNA)
RNA: GGGAGUUCUACAGUCCGACGAUCACCUUGGUCCGCAAUGGUGAUCCUCUGUAACCUGUCAAUAAACAGGUUGUCAAAGCUGCUGGAAGUAUCUUCCGCUUGACUUGAAACACGAUGCCGCGGGUGAUGCUCACUAGCUUCAGACAACAGAGGAUUGAGCAUCA
B6: chr1:93831146:93831147:+_ENSG00000117505_ENST00000370272|hu_hu|FALSE|FALSE (ssRNA)
RNA: GGGAGUUCUACAGUCCGACGAUCUAACAGAGGUUCAGUUUCACAGCCUUUCCCUCAAGUGUCUUAUCCUAAAAGUAAAACCUAGAUGAUCUAAGGUGGUGGUUUUCAACAGGGUGCAAUUUUGCCUCCUAUACUCGCAACACCCAACAGAGGAUUGAGCAUCA
B7: 10523219_10523560_686_CDS_ENSG00000160049_ENST00000377038|human|control|control (ssRNA)
RNA: GGGAGUUCUACAGUCCGACGAUCACCCGUGUCUACUGCAUCCACCUCCUCACCAAAGGCAGCUUUGGACUCUUCCUGCUUUGACAAGAGGCUGCCCUCUUUCUCCAAAGCCUGGAGGUACAGCUGCAGGAGCUGCUUGGACUGCAACAGAGGAUUGAGCAUCA
B8: chr2:238002776:238002777:+_ENSG00000198612_ENST00000392008|hu_hu|motif|central (ssRNA)
RNA: GGGAGUUCUACAGUCCGACGAUCGAUUGAAGUAUACGCUUGAGAGACCAGGGCAAAGGCGCGUCUCCUUGUUGCAUCUCGGAGUGCUUCCAUAAUUGGCUGGACCGUCUCAGACCACUGGUGAGCGUUGAUGGUUGUAUAGAUCAACAGAGGAUUGAGCAUCA
B9: chr11:108005878:108005879:+_ENSG00000075239_ENST00000265838|hu_hu|FALSE|FALSE (ssRNA)
RNA: GGGAGUUCUACAGUCCGACGAUCCAUGAUGGCUUUCAUUCCUGAAGCACAAACUUUGUUUAUGGUGGUACAUGGAGUAGAAAUAGGUAAGCCUGCACCCAAUACUGCCUGCCUUGUAGGAGCUUGUCCUUCACCUCCUUGUAGCAACAGAGGAUUGAGCAUCA
B10: chr12:57883053:57883054:+_ENSG00000166986_ENST00000262027|hu_mus|motif|central (ssRNA)
RNA: GGGAGUUCUACAGUCCGACGAUCGGUGAGAUCAUCUUGUUCCCAGCCACAUAACAGAAAAAAAUAUCGGCAGAUUGCACGGGCAGAGAAGAGGUAGUUGCCACUAUCCAGCUGCAAGACAGGGACCUUAGGCCGGGUAAGGAACAACAGAGGAUUGAGCAUCA
B11: chr1:66461122:66461123:+_ENSMUSG00000015222_ENSMUST00000114013|mus_hu|FALSE|FALSE (ssRNA)
RNA: GGGAGUUCUACAGUCCGACGAUCAGGUGAUGGCAAUGGGACUGUGUACUUAUUGAACACACAGUAGCCCAGGUCUUCGAGCUGACUGUCCGUUUUUACAAUGACAUGGUUUUCAUCAGUUACCGGGGGCAAGCCAGUACGACUCAACAGAGGAUUGAGCAUCA
B12: chr2:86371542:86371543:-_ENSG00000132305_ENST00000449247|hu_hu|FALSE|FALSE (ssRNA)
RNA: GGGAGUUCUACAGUCCGACGAUCCCAGUCCUGUGCCACUCGUCUGGAUUCCCCCUUCAGCUGAUUGACAAACUUUGCUGCUAGCUCCAGAUCACCAUGCUCAAUGCAAUAGGAAGCAUAUGACAGUAAUUUAAAUGUGUUUAUCAACAGAGGAUUGAGCAUCA
B13: chr5:33455709:33455710:+_ENSG00000113407_ENST00000502553|hu_hu|motif|central (ssRNA)
RNA: GGGAGUUCUACAGUCCGACGAUCAGCUUGUUUUUCUUUAAUGAUUUUCUUACACAAAGCCUCCAGAGAAGAGAAAUCAUUGCGGGACACACCCCCUUCUUCGAGGUACAUGUCAUAAUAGAAUCCAUUUUCUAUUGGCGGACCCAACAGAGGAUUGAGCAUCA
B14: chr1:163112212:163112213:-_ENSG00000143248_ENST00000313961|hu_hu|hu_hu_hu_mus_False|68_108 (ssRNA)
RNA: GGGAGUUCUACAGUCCGACGAUCUUUAUUUAUCCAGAAGAGUGAGUUACAUACUAGGCAAAGUAUUGAAUACAAAAAUCAGGAAACAAACACUAUUGGUCCAGAAUUUAAAACUUUAUGAGCGAAGUGCUGGCACAGGACUUACAACAGAGGAUUGAGCAUCA
B15: chr7:56126341:56126342:+_ENSG00000146731_ENST00000540286|hu_mus|hu_hu_hu_mus_True|98_98 (ssRNA)
RNA: GGGAGUUCUACAGUCCGACGAUCCAUGUUUCUCCUCUUAGCUCUGCGCAGAGCUACGAUCCCUUCUUUCGCAAGGGCAUCUAAGGAAAAGGGGUCAAUCCCCUUUUGAUUAAUAACGACAAAUCCUUUAUCUGAGUCACCACACAACAGAGGAUUGAGCAUCA
B16: chr1:45984709:45984710:-_ENSG00000117450_ENST00000319248|hu_mus|FALSE|FALSE (ssRNA)
RNA: GGGAGUUCUACAGUCCGACGAUCUGCAUUUCCUGAAGACAUCUUGCUAUCAGCAGGGUCGAGCCACAGGUCUCACAAACAGAAAGAGCCGUGAGAACGCAGGAAGAGGUCGCCCGACAGCGCGCGCGGGGAGCUGCUUUUAUACAACAGAGGAUUGAGCAUCA
B17: chr7:129114946:129114947:-_ENSMUSG00000034951_ENSMUST00000057576|mus_mus|motif|central (ssRNA)
RNA: GGGAGUUCUACAGUCCGACGAUCAUCCACAAGCAUCAUCAAGCUGUUCUGCAUGCCGGUCAGCUUUGCAGAAAUCACAGCGGUGUCUUGAGUUUUGAAGGUCUCCUCAAUAUCAGCACUCAGCGUGCUCCACUUGUCAGCUUCCAACAGAGGAUUGAGCAUCA
B18: chr8:73998637:73998638:+_ENSMUSG00000074247_ENSMUST00000124745|mus_mus|motif|central (ssRNA)
RNA: GGGAGUUCUACAGUCCGACGAUCGCUUGACACGAGUUACAGCAUAAAUAAAAACUCAAGGAAAAUAAAUACAUGGAUCCGGUGCGGUUGGAGGGCGCGGGCUGGAUGUAGGAGGCGGGCCGCGCUUACACACGCGGGUGGGAGCAACAGAGGAUUGAGCAUCA
B19: chr2:44571066:44571067:-_ENSG00000138078_ENST00000409411|hu_mus|FALSE|FALSE (ssRNA)
RNA: GGGAGUUCUACAGUCCGACGAUCAACUCUGAUGCAAUCAAUGAAAGGCUGAUCCAAUUUAAGUUCUUCCAGGUUGAAUAAAACUUCAUAAUUAUCACUGUCAGCUUCUUCGUCUUUGGAACGAACCAAGCAGCAACCUUCUUGCAACAGAGGAUUGAGCAUCA
B20: chr4:95690885:95690886:+_ENSMUSG00000028572_ENSMUST00000156910|mus_mus|mus_mus_mus_hu_False|58_58 (ssRNA)
RNA: GGGAGUUCUACAGUCCGACGAUCUUUAGAAAAUGUUAAAUACCAUGCUAAAAUAUUUUCAAAGGCUUAUUUUAUUUUACUAAAAGACACAGGCAAGCAGACACUACAAGAAUAUAUGAAAAUGAAACUCAACAAUAUAACUGUCAACAGAGGAUUGAGCAUCA
B21: chr2:44428564:44428565:+_ENSG00000138032_ENST00000378551|hu_mus|motif|central (ssRNA)
RNA: GGGAGUUCUACAGUCCGACGAUCGAGAGCAGAGCCUGAUUUGUCAGCUGCCCUGAAGUCUUCAUUGGUGGUGAUGUGUUCGGAUAGAUGUGUUGAACAGUAAUUUGCCACUCGGGAUCCAGCAUGACCGUCAUAAACUGCAAACAACAGAGGAUUGAGCAUCA
B22: chr5:144470944:144470945:+_ENSMUSG00000018001_ENSMUST00000116456|mus_mus|motif|central (ssRNA)
RNA: GGGAGUUCUACAGUCCGACGAUCAUAUACAUUGUAUAACACUGAAGAAAUUAAUACAUAUGUACAUUAUUUACAUAGUAACGGUUUAUUGUAAAUAGAAAUGUUUUCUAAGAUAAAAAGAAAUCACAACAUGGUUUCUGGUCUCAACAGAGGAUUGAGCAUCA

These results are taken from publication PMC12136788.

Some of the results follow.

In the test the target is T1, UNK ZnF1-3. Put plainly: nsRBNS (natural sequence RNA bind-n-seq); RBNS binding buffer (assumed for nsRBNS): 25 mM Tris pH 7.5, 150 mM KCl, 3 mM MgCl2, 0.01% Triton X-100, 500 ug/ml BSA, 20 U/ml SUPERase-In, 4 C; UNK is unkempt and MSI1 is Musashi-1; names of the RNAs are library labels; protein concentration not given here; high values mean tight binding.
As to B1, the binding signal is 1.67 enrichment R.

In turn, B2 had a binding signal of 0.679 enrichment R.

The molecule B3 yielded a binding signal of 0.663 enrichment R.

The molecule B4 displayed a binding signal of 0.527 enrichment R.

For B5, the binding signal came out at 0.483 enrichment R.

In the case of B6, the binding signal came out at 0.846 enrichment R.

B7 gave a binding signal of 0.578 enrichment R.

On to B8, for which the binding signal came out at 1.1 enrichment R.

B9: the binding signal stood at 0.812 enrichment R.

B10 gave a binding signal of 2.18 enrichment R.

With B11, the binding signal was 0.586 enrichment R.

Molecule B12 registered a binding signal of 1.23 enrichment R.

Molecule B13 yielded a binding signal of 1.81 enrichment R.

The molecule B14 yielded a binding signal of 1.69 enrichment R.

B15 showed a binding signal of 0.783 enrichment R.

Turning to B16, the binding signal came to 1.82 enrichment R.

Molecule B17 registered a binding signal of 0.961 enrichment R.

For B18, the binding signal was found to be 2.37 enrichment R.

As for B19, the binding signal is 1.04 enrichment R.

For B20, the binding signal worked out at 1.59 enrichment R.

Consider B21, for which the binding signal was found to be 1.1 enrichment R.

The molecule B22 showed a binding signal of 0.814 enrichment R.
